Measurements reported in patent US20240247076A1 (SUZHOU ALPHAMAB, published 2024).

How the values were obtained:
[1] = target: T1, mApple-chis (mouse, UniProt Q91Y47 19-389); experiment: ELISA, Fc fusion on coated antigen
T1 construct: range 1-389; also called mapple-chis-biotin
T1 sequence (looked up): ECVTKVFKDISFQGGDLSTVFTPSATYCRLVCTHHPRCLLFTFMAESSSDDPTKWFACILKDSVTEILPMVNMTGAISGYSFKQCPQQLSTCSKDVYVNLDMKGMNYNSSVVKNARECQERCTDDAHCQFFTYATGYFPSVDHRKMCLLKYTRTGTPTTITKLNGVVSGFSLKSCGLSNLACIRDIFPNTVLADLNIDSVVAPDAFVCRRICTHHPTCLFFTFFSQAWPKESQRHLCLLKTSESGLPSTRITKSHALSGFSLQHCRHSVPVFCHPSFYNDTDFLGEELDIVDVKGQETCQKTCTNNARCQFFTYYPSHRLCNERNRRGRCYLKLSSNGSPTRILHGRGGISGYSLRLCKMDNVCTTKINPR

[2] = target: T1, mApple-chis; experiment: BLI, antibody on protein A sensor, antigen in solution

- EC50 [1]: 0.0444 µg/mL
- Kd [2]: < 1 pM
B1: iFE97-Fc (Fc fusion)
chain: QVQLQESGGGSVQAGGSLRLSCTASEFTFDDSDMAWYRQAPGNECELVSTITSDGGTYYADSVKGRFTISQDNAKNTMYLQMNNLKPEDTAVYYCAADQWGSAEGDCTSSYPGGYWGQGTQVTVSS[sequence of human IgG1 Fc omitted]
notes: VHH fused to human IgG1-Fc, made in HEK293; also called IFE97-Ld-Fc

- EC50 [1]: 0.0339 µg/mL
- Kd [2]: 31.4 pM
B2: iFE148-Fc (Fc fusion)
chain: QVQLQESGGGSVQAGGSLRLSCVASGYTFNNNFVGWFRQAPGKEREGVAAIYSLGGSTYYADSVKGRFTISQDNAKNTVYLQMDSLKPEDTATYYCAGAITWVPPLSHRRYTYWGQGTQVTVSS[sequence of human IgG1 Fc omitted]
notes: VHH fused to human IgG1-Fc, made in HEK293; also called IFE148-Ld-Fc

One block for each binder: values may come before it.
